Source: paper PMC9226319, “Peripherally restricted transthyretin-based delivery system for probes and therapeutics avoiding opioid-related side effects” (Nature Communications, 2022)

What was measured:
in vitro = settings: human, % Cell viability, Hep3B cell line MTT assay, replicates
Hep3B cell line = settings: for % Cell viability: Hep3B cell line MTT assay, replicates

Row | Compound | viability at 72 h, 10 µM (in vitro; 10 μM) [%] | viability at 72 h, 100 µM (in vitro; 100 μM) [%] | % Cell viability (Hep3B cell line; 10 μM) [%] | % Cell viability (Hep3B cell line; 100 μM) | % Cell viability (Hep3B cell line; 1 μM) | cytotoxicity, Hep3B (Hep3B cell line; 10 and 100 µM, 72 h, MTT)
1 | C=CCN1CC[C@]23c4c5ccc(O)c4O[C@H]2[C@@H](OCc2cn(CCNCCCCCCOc4cc(OCCCc6c(C)n[nH]c6C)cc(C(=O)O)c4)nn2)CC[C@@]3(O)[C@H]1C5 [AG10-L2-Nal] | 107 | 104 | 103 | 109% and 106% |  | 
2 | COc1cccc2c1C(=O)c1c(O)c3c(c(O)c1C2=O)C[C@@](O)(C(=O)CO)C[C@@H]3O[C@H]1C[C@H](N)[C@H](O)[C@H](C)O1 [DOX] |  |  |  |  | 64% and 62% | 
3 | C=CCN1CC[C@]23c4c5ccc(O)c4O[C@H]2[C@@H](OCCOCCOCCOCCOCCOCCOCCOC)CC[C@@]3(O)[C@H]1C5 [Naloxegol, reference compound] |  |  | 100 |  |  | no cytotoxicity

Where “and” joins values, the source holds several entries; their conditions need not be identical. Equal values may be shown once. Read-outs that look alike come from different tables or passages of the source.
